# In PMC4336329 (PLoS ONE, 2015):
# The whole screen tested about 310,000 compounds, of which about 14,000 (4.5%) showed an effect of 50% or more. Effects have a minus sign here. The list shows a part of the results.
# Biological target: human ether-à-go-go-related gene (hERG) potassium channel (human, UniProt Q12809)
# Assay: primary screen, population patch clamp on CHO cells stably expressing hERG
# 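Note: peak tail current of the secondary pulse compared with the same well before compound.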
# Chain of human ether-à-go-go-related gene (hERG) potassium channel (Q12809 whole entry, looked up): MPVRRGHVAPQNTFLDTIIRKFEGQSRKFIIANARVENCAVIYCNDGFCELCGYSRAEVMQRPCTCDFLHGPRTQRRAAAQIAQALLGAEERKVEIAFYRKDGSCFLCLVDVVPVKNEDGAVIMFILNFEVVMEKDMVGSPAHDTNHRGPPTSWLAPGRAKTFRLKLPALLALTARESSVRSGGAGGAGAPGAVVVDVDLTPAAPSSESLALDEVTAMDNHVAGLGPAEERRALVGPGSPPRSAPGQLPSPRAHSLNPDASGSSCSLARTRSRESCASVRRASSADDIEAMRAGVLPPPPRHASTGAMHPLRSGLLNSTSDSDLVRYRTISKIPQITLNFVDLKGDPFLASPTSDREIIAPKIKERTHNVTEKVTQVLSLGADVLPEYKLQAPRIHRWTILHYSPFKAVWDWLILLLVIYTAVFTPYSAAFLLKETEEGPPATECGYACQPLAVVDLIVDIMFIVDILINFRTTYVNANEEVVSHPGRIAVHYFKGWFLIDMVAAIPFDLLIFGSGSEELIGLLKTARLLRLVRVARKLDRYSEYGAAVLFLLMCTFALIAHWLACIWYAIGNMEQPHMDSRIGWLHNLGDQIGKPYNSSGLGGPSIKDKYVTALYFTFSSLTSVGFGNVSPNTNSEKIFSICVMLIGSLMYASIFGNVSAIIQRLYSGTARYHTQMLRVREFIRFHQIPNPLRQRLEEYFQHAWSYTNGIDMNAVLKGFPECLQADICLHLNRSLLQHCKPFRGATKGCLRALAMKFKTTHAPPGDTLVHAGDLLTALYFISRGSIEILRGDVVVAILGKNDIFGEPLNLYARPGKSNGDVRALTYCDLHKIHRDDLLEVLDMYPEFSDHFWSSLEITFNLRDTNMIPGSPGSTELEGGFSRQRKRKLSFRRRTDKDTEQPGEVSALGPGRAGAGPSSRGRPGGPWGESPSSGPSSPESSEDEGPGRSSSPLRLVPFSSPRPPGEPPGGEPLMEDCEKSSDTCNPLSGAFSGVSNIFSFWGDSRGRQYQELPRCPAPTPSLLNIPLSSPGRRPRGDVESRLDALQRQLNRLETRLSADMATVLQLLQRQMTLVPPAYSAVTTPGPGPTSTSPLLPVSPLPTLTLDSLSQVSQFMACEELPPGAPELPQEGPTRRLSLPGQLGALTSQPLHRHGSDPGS
row,SMILES,"hERG current change (%, negative = inhibition) at 10uM [%]"
1,O=C(N/N=C/C(Br)=C\c1ccccc1)c1cccs1,-4.13
2,O=C(NCc1cccnc1)c1csc2c1CCCC2,18.8
3,CC(C)(C)OC(=O)N1CCC(c2cc(=O)n3[nH]cc(C(=O)Nc4ccc(F)c(Cl)c4)c3n2)CC1,6.92
4,Cc1onc(-c2c(F)cccc2Cl)c1C(=O)N1CCN(c2ncc(Br)cn2)CC1,-33.7
5,c1ccc(Nc2nc3ccccc3o2)cc1,15.7
6,C=CCOc1ccc(/C=C2\SC(=Nc3cccnc3)NC2=O)cc1,6.83
7,Cl.O=C(O)c1ccc(CNCc2ccccc2F)cc1,5.98
8,COc1ccc2c(c1)C=C(CN1CCN(Cc3ccccc3C)C(CCO)C1)CO2 (centres unmarked),-25.6
9,S=C(Nc1ccccc1)Nc1nc2ccccc2n1CCOc1ccccc1,-0.0816
10,O=C(CN(c1ccc(Cl)c(Cl)c1)S(=O)(=O)c1ccccc1)N1CCc2ccccc2C1,11.8
11,O=C(CN1CCN(Cc2ccccc2)C1=O)NCCCN1CCOCC1,5.12
12,CC(C)[C@@H](N)C(=O)NCC1CCC(C(=O)N[C@@H](Cc2ccccc2)C(=O)O)CC1.Cl (some centres unmarked),16.6
13,O=C(Oc1cncc(Cl)c1)c1ccco1,-4.17
14,COCc1cc(C)n(CC(=O)Nc2ccc(Cl)cc2Cl)c(=O)c1C#N,4.73
15,COC(=O)CNC(=O)c1cc(-c2ccncc2)nc2c(C)c(Cl)ccc12,-27.9
16,COc1ccc(CCNC(=O)c2cc(-c3cc(Cl)ccc3O)n[nH]2)cc1OC,1.89
17,CC(C)(C)NC(=O)CSc1ccc(C(C)(C)C)cc1,3.01
18,CCOc1ccc(N=C2SCC(=O)N2CC)cc1,12.7
19,C/C(=N\NC(=O)c1nnn(-c2nonc2N)c1CSc1ccccc1)c1ccco1,10.8
20,CC(=O)c1cc2c(cc1NC(=O)CCc1c(C)nc3ncnn3c1C)OCO2,-10.1
21,CCOC(=O)C1(Cc2cccc(OC)c2)CCCN(C(=O)c2cc(C)[nH]n2)C1 (centres unmarked),-7.8
22,COCc1cc(C)nc2sc(C(=O)NCCO)c(-n3cccc3)c12,15.6

row,SMILES,"hERG current change (%, negative = inhibition) at 10uM [%]"
1,CN(C)/C=N/c1nc(Sc2ccc(C(F)(F)F)cc2[N+](=O)[O-])n[nH]1,6.73
2,CCNC(=O)c1c(O)c2cccc3c2n(c1=O)CC3,8.23
3,Cc1cc(C)c(C#N)c(SCC(=O)Nc2nonc2N)n1,1.81
4,O=C(Nc1ccc2c(c1)OCO2)c1cn(Cc2ccc(F)cc2)nn1,9.78
5,O=C1c2cccnc2C(Nc2ccc(Br)cc2Br)N1Cc1cccs1 (centres unmarked),6.27
6,O=C(Nc1cccc(Cl)c1)NC1CCCCC1,8.14
7,Cc1ccc(NC(=O)c2nc[nH]c2C(=O)N[C@@H](C)C(=O)OC(C)(C)C)cc1,9.98
8,COc1cccc(CNC(=O)CCC2CCCN(Cc3cc(Cl)ccc3O)C2)c1 (centres unmarked),-60.6
9,C=CCN(C(=O)c1oc2c(Cl)cc(C)cc2c1C)C1CCS(=O)(=O)C1 (centres unmarked),-22.4
10,Cc1ccc(OCCCC(=O)NCc2ccco2)cc1,13.1
11,COc1ccc(C(=O)N2CCN(C(=O)Cc3ccccc3)CC2)cc1OC,5.3
12,O=C(COC(=O)CNC(=O)c1ccc(Br)o1)Nc1ccc2c(c1)OCCO2,-20.8
13,O=C(CCl)N(CCCNC(=O)C(F)(F)F)c1ccc([N+](=O)[O-])cc1,3.26
14,COc1cccc(C2[C@H](C)C3(CCN2C)OCCO3)c1.Cl (some centres unmarked),3.95
15,NS(=O)(=O)c1ccc(-c2ccc(C=C3C(=O)c4ccccc4C3=O)o2)cc1,18.5
16,CC[C@H](C)[C@@H](C(=O)NCCCCCCCCCCC(=O)N1CCNCC1)n1cc(CCCCCN)nn1,13.8
17,Cc1nnc2n(-c3ccccc3)c(=O)c3c4c(sc3n12)COC(C(C)C)C4 (centres unmarked),-13.6
18,CCC[C@@H](CN[C@@H](CNC)C(C)C)NCCCCc1ccccc1,-10.1
19,O=C(Oc1ccc(C(=S)N2CCOCC2)cc1)c1ccc(F)cc1,21.4
20,CCOc1ccc(S(=O)(=O)N2CCC(C(=O)NCc3ccccn3)CC2)cc1,-25.9
21,Cn1ncc([N+](=O)[O-])c1C(=O)Nc1ccc(Cl)cc1,1.61
22,CCCCN1C(=O)/C(=c2\sc3nc(=O)c(-c4ccccc4)nn3c2=O)c2ccccc21,11.4
